# Measurements reported in paper PMC4336329 (PLoS ONE, 2015).
# Out of some 310,000 compounds screened, about 2,200 (0.71%) showed an effect of 50% or more. Effects have a minus sign here. Some of the results follow.
# Target: human ether-à-go-go-related gene (hERG) potassium channel (human, UniProt Q12809)
# Experiment: primary screen, population patch clamp on CHO cells stably expressing hERG
# Sequence of human ether-à-go-go-related gene (hERG) potassium channel (Q12809 whole entry, looked up): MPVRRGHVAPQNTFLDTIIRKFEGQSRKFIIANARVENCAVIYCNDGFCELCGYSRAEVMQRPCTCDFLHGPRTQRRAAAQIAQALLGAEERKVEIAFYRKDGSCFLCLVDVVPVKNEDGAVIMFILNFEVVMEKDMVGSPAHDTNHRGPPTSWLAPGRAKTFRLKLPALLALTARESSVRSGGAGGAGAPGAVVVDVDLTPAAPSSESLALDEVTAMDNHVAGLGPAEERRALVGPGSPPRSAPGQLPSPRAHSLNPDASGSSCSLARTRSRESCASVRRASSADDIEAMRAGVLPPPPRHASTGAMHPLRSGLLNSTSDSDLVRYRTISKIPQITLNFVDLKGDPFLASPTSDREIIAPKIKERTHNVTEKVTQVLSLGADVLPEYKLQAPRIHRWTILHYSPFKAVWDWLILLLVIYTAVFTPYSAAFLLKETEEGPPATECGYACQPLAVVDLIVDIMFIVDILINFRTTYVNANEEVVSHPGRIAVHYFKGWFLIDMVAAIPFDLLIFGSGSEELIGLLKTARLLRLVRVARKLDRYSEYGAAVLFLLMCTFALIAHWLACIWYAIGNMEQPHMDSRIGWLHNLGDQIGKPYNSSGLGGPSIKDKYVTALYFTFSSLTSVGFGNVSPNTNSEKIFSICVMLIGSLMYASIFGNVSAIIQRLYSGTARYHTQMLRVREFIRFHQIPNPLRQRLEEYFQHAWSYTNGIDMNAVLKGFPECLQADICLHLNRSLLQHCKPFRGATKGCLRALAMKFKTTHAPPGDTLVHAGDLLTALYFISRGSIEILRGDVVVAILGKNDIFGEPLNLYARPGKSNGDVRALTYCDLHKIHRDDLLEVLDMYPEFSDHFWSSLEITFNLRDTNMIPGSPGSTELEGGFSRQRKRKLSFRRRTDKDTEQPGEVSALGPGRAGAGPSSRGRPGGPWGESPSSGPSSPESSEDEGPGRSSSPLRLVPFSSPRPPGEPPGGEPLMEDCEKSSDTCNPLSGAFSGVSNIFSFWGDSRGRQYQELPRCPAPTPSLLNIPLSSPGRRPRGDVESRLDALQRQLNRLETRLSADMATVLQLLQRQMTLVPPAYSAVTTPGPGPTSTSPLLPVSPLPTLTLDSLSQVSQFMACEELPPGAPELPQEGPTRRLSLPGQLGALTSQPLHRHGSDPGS
row,Compound,"hERG current change (%, negative = inhibition) at 1uM"
1,CCOc1ccc(-n2c(=O)[nH]cc(C(=O)N3CCc4ccccc43)c2=O)cc1,11%
2,S=c1[nH]nc(NCCCN2CCOCC2)s1,11.3%
3,CC(C)(C)c1cc(N)n(-c2ccc(C(=O)O)cc2)n1,17%
4,COc1cccc(NC(=O)c2ccc(CN3CCc4ccccc4C3)cc2)c1,3.46%
5,Cc1ccc(CC2S/C(=N/N=C/c3ccco3)NC2=O)cc1 (stereo not shown),7.27%
6,CCCS(=O)(=O)c1c(S(=O)(=O)CCC)c2c(N)cccn2c1C(=O)c1ccc(OC)cc1,9.6%
7,Cc1cccc(-c2nc(C#N)c(NCC3CCCO3)o2)c1 (stereo not shown),6.99%
8,CC(=O)c1ccc(NC(=O)C2CCN(S(=O)(=O)c3cccc4nonc34)CC2)cc1,4.65%
9,CC1CCCC(NC(=O)CN2CCN(Cc3ccc(Cl)cc3)C2=O)C1C (stereo not shown),4.16%
10,O=C(CN(C(=O)c1cccc([N+](=O)[O-])c1)C1CCCCC1)Nc1ccc(Cl)c([N+](=O)[O-])c1,-1.44%
11,O=C(Nn1cnnc1)c1ccc(Cl)cc1[N+](=O)[O-],13.5%
12,CN(Cc1cccc2ncccc12)C(=O)CC1C(=O)NCCN1Cc1ccc(F)cc1 (stereo not shown),9.92%
13,COC(=O)c1cn(CC(=O)NCc2ccco2)c2ccccc12,6.68%
14,Cc1ccc(S(=O)(=O)NCCc2c[nH]c3ccccc23)cc1,15.9%
15,CCOC(=O)c1c(S(=O)(=O)N2CCCC(C(=O)Nc3ccc(C)cn3)C2)c(C)n(C)c1C (stereo not shown),20%
16,CCOc1ccc2nc(N3CCCC(C(=O)NCC4CCCO4)C3)sc2c1 (stereo not shown),0.0745%
17,CCOC(=O)c1nnn(CC(=O)Nc2cccc(OC)c2)c1C(=O)OCC,3.45%
18,Cn1c(=O)cc2c3c(c(N4CCCCC4)ccc31)C(=O)c1ccccc1-2,6.23%
19,O=c1c2ccccc2nc(-c2ccccc2F)n1-c1ccccc1,15.5%
20,CC(C)NC(=O)Cn1cnc2c1c(=O)n(C)c(=O)n2C,18.6%
21,Cc1nc2ccccc2n1C1CCN(CC(=O)NCc2ccc(F)cc2)CC1,-23.3%
22,Cc1cc(=O)n2nc(N3CCCC3C(=O)NCCCN3CC(C)CC(C)C3)sc2n1 (stereo not shown),17.4%

row,Compound,"hERG current change (%, negative = inhibition) at 1uM"
1,CC1CCCCC12NC(=O)N(CC(=O)Nc1ccc(S(=O)(=O)Nc3ncccn3)cc1)C2=O (stereo not shown),10.7%
2,Oc1[nH]c2ccccc2c1N=Nc1ccccc1F,0.367%
3,Cc1cccc(OCCN2C(=O)C(=O)c3cc(C)ccc32)c1,2.49%
4,O=C(NC1CCCCC1)OCCN1CCN(Cc2ccccc2)CCC1=O,-1.5%
5,CCOC(=O)C(C)Sc1ncc(OC)c(Sc2ccc(Cl)cc2)n1 (stereo not shown),5.4%
6,COC(=O)C1=C(C(=O)OC)[C@@H]2N(Cc3ccccc3)c3ccccc3[C@@]23C[C@@H](C(=O)OC)N(C(=O)NC(C)(C)C)C3=N1,8.05%
7,COc1ccccc1NC(=O)CC1C(=O)Nc2c1c(=O)n(C)c(=O)n2C (stereo not shown),12.3%
8,CNC(=O)Nc1ccccc1NC(=O)NC,21.2%
9,Cc1cc(C(=O)Nc2cnn(Cc3ccc(Cl)cc3Cl)c2)no1,-2.18%
10,CC1Sc2ccc(C(=O)Nc3ccc(S(=O)(=O)N(C)C)cc3)cc2NC1=O (stereo not shown),-9.84%
11,CC(=O)NS(=O)(=O)c1ccc(N=c2ssc3c2-c2ccc(C)cc2NC3(C)C)cc1,7.73%
12,Cc1cccc(NC(=O)C2CCN(S(=O)(=O)c3cccc4cccnc34)CC2)c1,8.54%
13,Cl.Nn1cnnc1N/N=C/c1cccc(Cl)c1Cl,12.8%
14,CCC(C)NCCOc1ccc(Br)cc1.O=C(O)C(=O)O (stereo not shown),-0.813%
15,CCCc1cc(=O)oc2c(CN3CCN(C)CC3)c(O)ccc12,-6.26%
16,O=C1CN=C(c2ccccc2)c2cc(Br)ccc2N1Cc1cc(=O)n2ccccc2n1,4.2%
17,COc1ccc(C(CCN(Cc2ccc(OC)c(OC)c2)C(=O)CCl)c2ccccc2)cc1 (stereo not shown),14.9%
18,CCC1(c2ccccc2)NC(=O)N(CC(=O)Nc2ccc(OC)nc2)C1=O (stereo not shown),4.47%
19,CC(=O)Nc1c(I)c(NC(C)=O)c(I)c(C(=O)[O-])c1I.[Na+],13.2%
20,CCCCn1c(C)cc2cc(O)ccc21,-2.48%
21,COc1cc(NC(=O)C2CCN(S(=O)(=O)c3ccc(N4CCCC4=O)cc3)CC2)cc(OC)c1,10.7%
